Kd, koff and kon data for two molecules are collected here from patent US20220389066A1 (Affibody, published 2022).

By Kd is commonly meant a measure of binding affinity in units of concentration. Low values mean higher affinity, high ones lower affinity. Broadly, the koff is a measure of how fast the partners let go of each other. A high value points to fast dissociation. Broadly, the kon is the second-order rate constant of association. Read a low kon as slower complex formation.

Test [1] deals with T1, HMGB1(disulfide), disulfide linked form of full-length HMGB1 (HMGB1C23-C45C106h) (rat, UniProt P63159 1-215, disulfide C23-C45; C106 reduced).
T1 construct: unlabelled in Biacore and Attana; also called b-HMGB1(disulfide)
T1 sequence: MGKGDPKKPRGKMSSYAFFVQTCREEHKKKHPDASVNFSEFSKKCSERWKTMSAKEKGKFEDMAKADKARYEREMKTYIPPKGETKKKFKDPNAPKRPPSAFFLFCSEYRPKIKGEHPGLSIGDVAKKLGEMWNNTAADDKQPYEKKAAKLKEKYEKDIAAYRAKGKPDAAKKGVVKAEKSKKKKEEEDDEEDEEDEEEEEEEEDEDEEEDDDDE
The experiment in a line: SPR (Biacore 2000); ZZA4263 captured on immobilized HSA, analyte injected 8.3-675 nM; 1:1 Langmuir model. As for the experimental part: (§1) HSA (Albucult®, Novozyme) was diluted to 10 μg/ml in acetate, pH 4.0, and immobilized onto a CM5 sensor chip using a Biacore 2000 instrument. Immobilization was performed by amine chemistry, using amine coupling kit, according to the manufacturer's instructions. The first surface of each chip was activated and deactivated for use as a reference cell (blank surface) during analyte injections. HBS-EP was used as running buffer, supplemented with 1.5 mM DTT when analyzing the binding to HMGB1(red). ZZA4263 was injected at a concentration of 100 nM for 4 minutes over the HSA and the reference sensor chip surfaces at a constant flow rate of 30 μl/min. This was followed by 4 minutes' injection of 0, 8.3, 25, 75, 225 and 675 nM of HMGB1(red), HMGB1(disulfide), HMGB2 (Biorbyt, cat. no. orb180287), HMGB3 (Biorbyt, cat. no. orb180288), SP100 (Biorbyt, cat. no. orb169341), TNF (R&D Systems, cat. no. 210-TA), IL-6 (R&D Systems, cat. no. 206-IL) and IL-1β (R&D Systems, cat. no. 201-LB/CF), respectively. The proteins were allowed to dissociate for 20 minutes before the chip surfaces were regenerated by two 10 second pulses using 10 mM HCl. The reference surface and the buffer sample were subtracted from all curves. The buffer sample was subtracted to adjust for the dissociation of ZZA4263 from HSA. All curves were fitted to a kinetic 1:1 Langmuir model in the BIA Evaluation software to estimate the binding properties (kₐ, kd and KD).
(§2) ZZA4263 was injected and captured on a surface with immobilized HSA followed by concentration series of HMGB1(red), HMGB1(disulfide), HMGB2, HMGB3, SP100, TNF, IL-6 and IL-1β. The highly homologous human proteins HMGB2, HMGB3, SP100 all bind to ZZA4263, although with 17-550 times lower affinity compared to HMGB1(red). No significant binding was detected to any of the other tested proteins involved in the HMGB1 signaling pathway (TNF, IL-6 and IL-1β).

Test [2] addresses T2, HMGB2 (human, UniProt P26583 1-209, limits assumed).
T2 construct: Bought protein
T2 sequence (looked up): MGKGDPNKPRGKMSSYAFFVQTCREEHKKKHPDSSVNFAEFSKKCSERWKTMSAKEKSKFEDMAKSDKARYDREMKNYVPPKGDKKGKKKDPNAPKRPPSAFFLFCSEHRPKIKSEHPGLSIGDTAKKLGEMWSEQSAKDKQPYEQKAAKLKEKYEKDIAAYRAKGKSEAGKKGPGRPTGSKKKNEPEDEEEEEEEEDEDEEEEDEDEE
Described as above. As for the experimental part: as §1, §2

The target of test [3] is T3, HMGB3 (human, UniProt O15347 1-200, limits assumed).
T3 construct: Bought protein
T3 sequence (looked up): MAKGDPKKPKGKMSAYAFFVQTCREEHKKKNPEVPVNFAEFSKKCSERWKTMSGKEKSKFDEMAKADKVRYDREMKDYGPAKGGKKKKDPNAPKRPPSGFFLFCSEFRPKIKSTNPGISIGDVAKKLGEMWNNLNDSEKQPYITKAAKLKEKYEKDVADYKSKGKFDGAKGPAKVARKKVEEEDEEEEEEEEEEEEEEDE
The test is described as above. On the procedure: as §1, §2

Test [4] addresses T1, HMGB1(disulfide), disulfide linked form …. Briefly: SPR (Biacore 2000); Z-ABD captured on HSA, analyte injected; heterogeneous ligand parallel reactions model, KD2. On the procedure:
Biacore kinetic and specificity analysis: The interactions of the A-box binding Z-ABD polypeptides ZA3812 (SEQ ID NO:35) and ZA3914 (SEQ ID NO:36) with four different HMGB1 variants were analyzed in a Biacore instrument by injecting various concentrations of HMGB1 variants over a surface containing ZA3812 and ZA3914, respectively, captured on immobilized HSA. […] In addition, the interaction of the B-box binding Z-ABD polypeptide ZA3975 (SEQ ID NO:37) was analyzed for binding to HMGB1(red) in the same manner.
Background: SPR reads the build-up and loss of mass on a sensor chip optically.

B1: ZZA4263, Z(boxB)-L2-Z(boxA)-ABD (designed binder)
chain: AEAKYAKEAWLAEQEIWQLPNLTEAQFQAFILKLIDDPSQSSELLSEAKKLNDSQAPKGAPGGGGSTSAEAKYAKEDWDAFWEIIWLPNLTDAQQRAFIYKLEDDPSQSSELLSEAKKLNDSQAPKASGSLAEAKEAANAELDSYGVSDFYKRLIDKAKTVEGVEALKDAILAALP
notes: Heterodimer of ZH27 and ZH32 with PP013
In test [1], B1 had a dissociation constant (Kd) of 11 nM, a koff of 0.00054 s⁻¹ and a kon of 49000 M⁻¹ s⁻¹. Moreover, in test [2], the Kd turned out to be 2 nM, the koff stood at 0.00036 s⁻¹ and the kon worked out at 180000 M⁻¹ s⁻¹. In test [3], this molecule registered a Kd of 66 nM, a koff of 0.0013 s⁻¹ and a kon of 20000 M⁻¹ s⁻¹.

B2: ZA3812 ([ZH 27]-ASGS-PP013) (designed binder)
chain: AEAKYAKEDWDAFWEIIWLPNLTDAQQRAFIYKLEDDPSQSSELLSEAKKLNDSQAPKASGSLAEAKEAANAELDSYGVSDFYKRLIDKAKTVEGVEALKDAILAALP
Regarding B2, the affinity in test [4], expressed as Kd, was 2.7 nM.
